Reference: the antibiotic and cytotoxicity screens of Wong et al. (2023)
The list shows a part of the results.

Test system: HSkMC (human skeletal muscle cells)
Assay: cytotoxicity call (relative viability < 0.9)
Conditions: 10 µM

| SMILES | cytotoxicity call |
| --- | --- |
| Cc1noc(C)c1NC(=O)Nc1ccc2c(c1)C(=O)N([C@@H](C)CO)C[C@@H](C)[C@H](CN(C)Cc1ccc3c(c1)OCO3)OCCCC[C@@H](C)O2 | inactive |
| Cc1noc(C)c1S(=O)(=O)N(C)C[C@@H]1Oc2ccc(NC(=O)C3CCCCC3)cc2CC(=O)N([C@H](C)CO)C[C@H]1C | inactive |
| C[C@H](CO)N1C[C@H](C)[C@@H](CN(C)C(=O)Nc2ccccc2)OCCCC[C@H](C)Oc2ccc(NC(=O)Cc3ccccc3)cc2C1=O | inactive |
| Cc1ccc(S(=O)(=O)Nc2cccc3c2O[C@@H](CN(C)C(=O)Nc2cccc4ccccc24)[C@@H](C)CN([C@H](C)CO)C3=O)cc1 | inactive |
| C[C@@H]1CCCCO[C@H](CN(C)C(=O)Nc2ccccc2)[C@H](C)CN([C@H](C)CO)C(=O)c2cc(NC(=O)NC3CCCCC3)ccc2O1 | inactive |
| CN1N=C(N)c2cn([C@@H]3O[C@H](COP(=O)(O)O)[C@@H](O)[C@H]3O)c3ncnc1c23 | inactive |
| C[C@H](CO)N1C[C@H](C)[C@H](CN(C)C(=O)Nc2ccc3c(c2)OCO3)Oc2c(NC(=O)C3CC3)cccc2C1=O | inactive |
| CCCCOc1cc(C(=O)OCCN(CC)CC)ccc1N.Cl | inactive |
| C[C@H](CO)N1C[C@H](C)[C@H](CN(C)C(=O)Nc2ccc(F)cc2)Oc2ccc(NC(=O)CCCCCC(=O)Nc3ccccc3N)cc2C1=O | inactive |
| Cc1ccc(S(=O)(=O)Nc2cccc3c2O[C@H](CN(C)C(=O)Nc2ccc(C(F)(F)F)cc2)[C@@H](C)CN([C@@H](C)CO)C3=O)cc1 | inactive |
